The list shows a part of the results. Sequences were assembled here from the parent chain. Inactive controls read about 0.05.
B1: TEV protease; numbered along this chain (parent)
chain: MGESLFKGPRDYNPISSSICHLTNESDGHTTSLYGIGFGPFIITNKHLFRRNNGTLVVQSLHGVFKVKDTTTLQQHLVDGRDMIIIRMPKDFPPFPQKLKFREPQREERICLVTTNFQTKSMSSMVSDTSCTFPSGDGIFWKHWIQTKDGQCGSPLVSTRDGFIVGIHSASNFTNTNNYFTSVPKNFMELLTNQEAQQWVSGWRLNADSVLWGGHKVFMVKPEEPFQPVKEATQL

Variants of: B1
Assay: raw area under fraction-flipped curve 0-4 h after induction (AUC4h, not background-subtracted), DNA-recorder readout of cleavage of the substrate (dimensionless); higher = more cleavage of the substrate by the protease variant
Conditions: temperature: 34 °C; time window: 0-4 h after rhamnose induction
Procedure: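 In vivo DNA recorder in E. coli TOP10(DE3) ΔrhaA at 34 °C. Each TEVp single-site mutant (parent TEVp 0) is paired with a single-site variant of the 7-mer TEVs (canonical ENLYFQ|S). The substrate sits between flexible linkers in a Bxb1-sfGFP-TEVs-SsrA fusion, so cleavage stabilises Bxb1 and speeds flipping of a recombination array, read by NGS. The value is the raw area under the fraction-flipped curve over 0-4 h after rhamnose induction (AUC4h), with ≥20 reads per time point. It is not background-subtracted; inactive controls average about 0.047.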
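Further: Bxb1 expression induced with 0.2% (w/v) L-rhamnose at OD600 near 0.5, cultures sampled hourly, flipped fraction per protease–substrate barcode pair counted by paired-end Illumina sequencing.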

Row | Variant | area with substrate ENAYFQS | area with substrate ENCYFQS | area with substrate ENDYFQS | area with substrate ENEYFQS | area with substrate ENFYFQS | area with substrate ENGYFQS | area with substrate ENHYFQS | area with substrate ENIYFQS | area with substrate ENKYFQS | area with substrate ENMYFQS | area with substrate ENNYFQS | area with substrate ENPYFQS | area with substrate ENQYFQS | area with substrate ENRYFQS | area with substrate ENSYFQS | area with substrate ENTYFQS | area with substrate ENVYFQS | area with substrate ENWYFQS | area with substrate ENYYFQS
1 | MGESLFKGPRDYNPISSSICHLTNESDGHTTSLYGIGFGPFISTNKHLFRRNNGTLVVQSLHGVFKVKDTTTLQQHLVDGRDMIIIRMPKDFPPFPQKLKFREPQREERICLVTTNFQTKSMSSMVSDTSCTFPSGDGIFWKHWIQTKDGQCGSPLVSTRDGFIVGIHSASNFTNTNNYFTSVPKNFMELLTNQEAQQWVSGWRLNADSVLWGGHKVFMVKPEEPFQPVKEATQL [I43S] | 0.0571 | 0.0506 | 0.0465 | 0.0416 | 0.0499 | 0.0415 | 0.0363 | 0.0543 | 0.0492 | 0.0139 | 0.0475 | 0.0451 | 0.057 | 0.0543 | 0.0554 | 0.0598 | 0.053 | 0.0461 | 0.0426
2 | MGESLFKGPRDYNPISSSICHLTNESDGHTTSLYGIGFGPFIITNAHLFRRNNGTLVVQSLHGVFKVKDTTTLQQHLVDGRDMIIIRMPKDFPPFPQKLKFREPQREERICLVTTNFQTKSMSSMVSDTSCTFPSGDGIFWKHWIQTKDGQCGSPLVSTRDGFIVGIHSASNFTNTNNYFTSVPKNFMELLTNQEAQQWVSGWRLNADSVLWGGHKVFMVKPEEPFQPVKEATQL [K46A] | 0.0556 | 0.0978 | 0.069 | 0.0627 | 0.0568 | 0.0568 | 0.062 | 0.151 |  | 0.0865 | 0.0492 |  | 0.0631 | 0.0604 | 0.0627 | 0.0637 | 0.0916 |  | 0.0594
3 | MGESLFKGPRDYNPISSSICHLTNESDGHTTSLYGIGFGPFIITNMHLFRRNNGTLVVQSLHGVFKVKDTTTLQQHLVDGRDMIIIRMPKDFPPFPQKLKFREPQREERICLVTTNFQTKSMSSMVSDTSCTFPSGDGIFWKHWIQTKDGQCGSPLVSTRDGFIVGIHSASNFTNTNNYFTSVPKNFMELLTNQEAQQWVSGWRLNADSVLWGGHKVFMVKPEEPFQPVKEATQL [K46M] | 0.0581 | 0.0632 | 0.0543 | 0.0524 |  |  | 0.063 | 0.0733 | 0.0682 |  |  | 0.0551 | 0.0549 | 0.0577 | 0.0524 | 0.054 | 0.0549 |  | 0.0739
4 | MGESLFKGPRDYNPISSSICHLTNESDGHTTSLYGIGFGPFIITNCHLFRRNNGTLVVQSLHGVFKVKDTTTLQQHLVDGRDMIIIRMPKDFPPFPQKLKFREPQREERICLVTTNFQTKSMSSMVSDTSCTFPSGDGIFWKHWIQTKDGQCGSPLVSTRDGFIVGIHSASNFTNTNNYFTSVPKNFMELLTNQEAQQWVSGWRLNADSVLWGGHKVFMVKPEEPFQPVKEATQL [K46C] | 0.0568 | 0.0627 | 0.0162 | 0.0627 | 0.0456 | 0.06 |  | 0.121 | 0.0689 | 0.0639 | 0.0692 | 0.0528 |  | 0.032 | 0.0337 | 0.0516 | 0.0639 | 0.0601 | 
5 | MGESLFKGPRDYNPISSSICHLTNESDGHTTSLYGIGFGPFIITNKHLFPRNNGTLVVQSLHGVFKVKDTTTLQQHLVDGRDMIIIRMPKDFPPFPQKLKFREPQREERICLVTTNFQTKSMSSMVSDTSCTFPSGDGIFWKHWIQTKDGQCGSPLVSTRDGFIVGIHSASNFTNTNNYFTSVPKNFMELLTNQEAQQWVSGWRLNADSVLWGGHKVFMVKPEEPFQPVKEATQL [R50P] | 0.0571 | 0.0665 | 0.063 | 0.0643 | 0.0393 | 0.0585 |  | 0.0987 | 0.0597 |  | 0.0588 | 0.0495 | 0.0574 | 0.0616 | 0.0591 | 0.0631 | 0.0662 |  | 0.0538
6 | MGESLFKGPRDYNPISSSICHLTNESDGHTTSLYGIGFGPFIITNKHLFHRNNGTLVVQSLHGVFKVKDTTTLQQHLVDGRDMIIIRMPKDFPPFPQKLKFREPQREERICLVTTNFQTKSMSSMVSDTSCTFPSGDGIFWKHWIQTKDGQCGSPLVSTRDGFIVGIHSASNFTNTNNYFTSVPKNFMELLTNQEAQQWVSGWRLNADSVLWGGHKVFMVKPEEPFQPVKEATQL [R50H] | 0.0677 | 0.066 | 0.0812 | 0.0609 | 0.0541 | 0.0597 | 0.0368 |  |  |  | 0.0523 |  |  | 0.0649 | 0.0683 | 0.0549 | 0.0833 | 0.0069 | 0.0613
7 | MGESLFKGPRDYNPISSSICHLTNESDGHTTSLYGIGFGPFIITNKHLFKRNNGTLVVQSLHGVFKVKDTTTLQQHLVDGRDMIIIRMPKDFPPFPQKLKFREPQREERICLVTTNFQTKSMSSMVSDTSCTFPSGDGIFWKHWIQTKDGQCGSPLVSTRDGFIVGIHSASNFTNTNNYFTSVPKNFMELLTNQEAQQWVSGWRLNADSVLWGGHKVFMVKPEEPFQPVKEATQL [R50K] | 0.0766 | 0.0939 | 0.06 | 0.0617 | 0.0702 |  |  | 0.0881 | 0.0579 | 0.0594 | 0.0735 |  | 0.0645 | 0.0479 | 0.0558 | 0.065 |  | 0.0064 | 0.0665
8 | MGESLFKGPRDYNPISSSICHLTNESDGHTTSLYGIGFGPFIITNKHLFRRPNGTLVVQSLHGVFKVKDTTTLQQHLVDGRDMIIIRMPKDFPPFPQKLKFREPQREERICLVTTNFQTKSMSSMVSDTSCTFPSGDGIFWKHWIQTKDGQCGSPLVSTRDGFIVGIHSASNFTNTNNYFTSVPKNFMELLTNQEAQQWVSGWRLNADSVLWGGHKVFMVKPEEPFQPVKEATQL [N52P] | 0.0635 | 0.0547 | 0.0666 | 0.0743 |  | 0.0595 | 0.0449 |  |  |  | 0.0449 | 0.06 |  | 0.0619 | 0.0619 |  | 0.0572 |  | 0.0493
9 | MGESLFKGPRDYNPISSSICHLTNESDGHTTSLYGIGFGPFIITNKHLFRRCNGTLVVQSLHGVFKVKDTTTLQQHLVDGRDMIIIRMPKDFPPFPQKLKFREPQREERICLVTTNFQTKSMSSMVSDTSCTFPSGDGIFWKHWIQTKDGQCGSPLVSTRDGFIVGIHSASNFTNTNNYFTSVPKNFMELLTNQEAQQWVSGWRLNADSVLWGGHKVFMVKPEEPFQPVKEATQL [N52C] | 0.0948 | 0.0608 | 0.0639 | 0.0549 | 0.0674 | 0.0612 | 0.0674 | 0.054 | 0.0569 | 0.0662 |  | 0.0762 | 0.0618 | 0.0658 | 0.0637 | 0.0567 | 0.0502 | 0.0036 | 

From the supplement of paper PMC12217912
